Measurements from PubChem BioAssay AID1159614 (National Center for Advancing Translational Sciences (NCATS), 2016).
Out of some 45,000 compounds screened, about 65 (0.1%) were called active. The call rests on the fitted dose curve; in most records, active means well fitted activation curve with a large enough effect; inconclusive means small, poorly fitted or top-dose-only effect; inactive means no such curve, though single readings can be large or run the other way. The list shows a part of the results.

target: Galactocerebrosidase (Homo sapiens) (UniProt P54803); test: A Novel Cell-Based Assay to Identify Small Molecules for B -Galactocerebrosidase; settings: 145M-Twi-hGALC-G270D cells (Twitcher mouse brain line with human GALC G270D), HMU-beta-Gal fluorescence, 48 h; series mostly up to 57.5 µM; activation: at the top concentration; further: 0% is about no effect; nearly all actives have a fitted effect of over 65% in size
UniProt P54803, sequence (P54803 whole entry, looked up): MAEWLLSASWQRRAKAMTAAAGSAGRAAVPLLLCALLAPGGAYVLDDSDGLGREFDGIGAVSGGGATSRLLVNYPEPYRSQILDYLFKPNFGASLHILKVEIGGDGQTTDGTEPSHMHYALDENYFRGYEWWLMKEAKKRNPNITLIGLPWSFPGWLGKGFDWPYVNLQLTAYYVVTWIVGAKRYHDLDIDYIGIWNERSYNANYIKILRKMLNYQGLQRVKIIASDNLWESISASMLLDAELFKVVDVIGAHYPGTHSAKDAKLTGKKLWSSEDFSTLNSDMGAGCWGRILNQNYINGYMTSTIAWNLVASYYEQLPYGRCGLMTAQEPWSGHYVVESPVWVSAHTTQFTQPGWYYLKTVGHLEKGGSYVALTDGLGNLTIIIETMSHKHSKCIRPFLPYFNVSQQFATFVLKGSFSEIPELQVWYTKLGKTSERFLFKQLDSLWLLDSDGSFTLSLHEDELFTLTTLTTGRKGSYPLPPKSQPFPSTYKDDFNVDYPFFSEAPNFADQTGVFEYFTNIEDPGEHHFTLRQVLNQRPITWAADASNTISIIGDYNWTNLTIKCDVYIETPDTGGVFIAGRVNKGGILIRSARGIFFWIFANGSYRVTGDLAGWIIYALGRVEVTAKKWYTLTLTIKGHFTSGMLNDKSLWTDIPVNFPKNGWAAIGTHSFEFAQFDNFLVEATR
Procedure, shortened: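 Live 145M-Twi cells (Twitcher mouse brain-derived, GALC-null) stably expressing human GALC-G270D, with a wild-type GALC line, were compound-treated. Residual GALC activity was then read as fluorescence from 0.1 mM final HMU-β-gal at pH 5.2; higher signal means activation.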

activation, inactive:
Cc1ccc(CNC(=O)CCCN2C(=O)CCn3nc(-c4cccn4C)cc32)cc1 -13%
Cc1cccc(CN2CCN(CC(=O)Nc3c(C)cccc3C)S2(=O)=O)c1 -7.7%
COc1cc(CNc2ccc3[nH]c(=O)[nH]c3c2)cc(Br)c1OCc1ccccc1F -10.1%
COCCNC(=O)CSc1nc(-c2ccccc2)[nH]c1-c1ccc(C)cc1 -10.3%
Cc1ccc(C)n1-c1nnc(N2CCCC(C(=O)NCc3cccc(Br)c3)C2)s1 (stereo not given) -7.34%
COc1cccc(NC(=O)N(Cc2cn(C)c3ccccc23)C2CCCCCC2)c1 -2.41%
CCN1CCN(c2cc(C)c3cc(NC(=O)/C=C/c4ccc(C)cc4)ccc3n2)CC1 -24.4%
Cc1cccc(C(=O)Nc2ccc(N3CCC(N4CCCCC4)CC3)c(C(=O)O)c2)c1 -0.64%
Cc1ccc(CNC(=O)CCc2c(C)nc3c4c(C)cc(C)nc4nn3c2C)cc1 -10.8%
Cc1ccc(Cl)cc1NC(=O)CC1Sc2ccccc2NC1=O (stereo not given) -13%
NC1=NC(c2cc(F)cc(F)c2)n2c(nc3ccccc32)N1 (stereo not given) -6.73%
CC1=C(C(=O)NCc2ccc(Cl)cc2)C2(CCC(C)CC2)OC1=O (stereo not given) -9.94%
O=S(=O)(Nc1ccc(C(F)(F)F)cc1)c1ccc2c(c1)OCCO2 -10.7%
COc1ccccc1N1CCN(Cc2nnc(-c3ccccc3C)o2)CC1 -13.8%
CCOC(=O)c1cccc(NC(=O)c2ccc3nc(CCc4ccccc4)oc3c2)c1 1.83%
O=C(c1ccc2c(c1)N(Cc1ccc(Cl)cc1)C(=O)c1ccccc1S2=O)N1CCC(Cc2ccccc2)CC1 (stereo not given) -10.4%
O=C(NCCCc1nc2ccccc2n1Cc1cccc(Cl)c1)C1CCCCC1 -1.34%
COCCCn1c(=O)c2sccc2n2c(CCCC(=O)Nc3cccc(C(F)(F)F)c3)nnc12 -7.66%
CC1=C(C(=O)Nc2ccccc2)C(c2ccc[nH]2)n2ncnc2N1 (stereo not given) -13.5%
CCCCOC(=O)c1ccc(NC(=O)c2csnn2)cc1 -3.16%
Cc1ccccc1OCC(=O)Nc1ccc2nc(SCC(N)=O)sc2c1 -10.8%
Cc1c(Cl)cccc1NC(=O)Cn1nnc(-c2nc(-c3ccccc3)no2)c1N -4.98%
CCCOc1ccc(C(=O)Nc2ccc3oc(-c4ccc(N(C)C)cc4)nc3c2)cc1 -12.8%
Cc1cccc(C)c1NC(=O)CSc1nc2ccccc2c2nc(CCc3c(C)n[nH]c3C)nn12 -2.22%
COC(=O)c1ccc(NC(=O)C(=O)NCC(c2cccnc2)N2CCc3ccccc32)cc1 (stereo not given) -14.3%
CCn1cc(C(=O)NCCc2ccc(C)cc2)c(=O)c2cc(S(=O)(=O)N3CCC(C)CC3)ccc21 -33.2%
CCCOc1ccc(OC(=O)c2cn(-c3ccc(OC)cc3)c(=O)c3ccccc23)cc1 -3.27%
CCC1=C[C@@H]2CN(C1)Cc1c([nH]c3ccccc13)[C@@](C(=O)OC)(c1cc3c(cc1OC)N(C)[C@H]1[C@@](O)(C(=O)OC)[C@H](OC(C)=O)[C@]4(CC)C=CCN5CC[C@]31[C@@H]54)C2 -9.35%
Cc1ccc(CCNC(=O)CCS(=O)(=O)c2cc3c(cc2Cl)NC(=O)CO3)cc1 -11.7%
CC(C)NC(=O)CN1C(=O)c2cccnc2Sc2ccccc21 -2.45%
CC(=O)c1cccc(NC(=O)c2cc(C)nc3c2c(C)nn3-c2cccc(Cl)c2C)c1 -11%
COc1ccc(CNC(=O)C2=CC(c3cccc(OC)c3)=NS(=O)(=O)N2C)cc1 -7.82%
O=C(OCc1cc(=O)n2nc(C3CC3)sc2n1)c1ccccc1Cl -10.3%
Cc1cccc(N2CCN(C(=O)c3ccc4c(Cl)c5c(nc4c3)CCCC5)CC2)c1C -15.5%
CCOc1ccccc1NC(=O)C1=C(C)Nc2ncnn2C1c1cccs1 (stereo not given) 9.06%
COc1ccc(NC(=O)Cn2nc(C(F)(F)F)c3c2CCCC3)cc1OC -9.67%
COc1cccc(-c2nn3c(=O)cc(CN4CCN(C(=O)/C=C/c5ccccc5)CC4)nc3s2)c1 -8.18%
COc1cc(NC(=O)c2nc3ccccc3n(C)c2=O)cc(OC)c1OC -10.7%
Cc1ccc(NC(=O)Cn2c(=O)n(Cc3ccc(C(=O)NCc4ccc5c(c4)OCO5)cc3)c(=O)c3ccccc32)cc1 -13.2%
COc1ccc(NC(=O)c2csnn2)cc1 -3.03%
CCOc1ccc(CNC(=O)CCS(=O)(=O)c2ccc3c(c2)oc(=O)n3C)cc1 -26%
COC(=O)c1c(-c2ccc(Cl)cc2)noc1N1CCN(c2ccc(F)cc2)CC1 0.747%
Cc1ccc(-c2nc(-c3cc4cccc(OCc5ccccc5F)c4oc3=O)no2)cc1 -6.73%
COc1ccc(-c2cc(C(C)=O)c(C)n2CCC(=O)NCc2ccc(C)cc2)cc1 7.42%
COc1cccc(CNC(=O)C2CCN(C(=O)c3cnn(-c4ccccc4)c3-n3cccc3)CC2)c1 -5.02%
Cc1ccc(NC(=O)Nc2cn(CC(C)C)c(=O)c3ccccc23)cc1N(C)C -49.4%
CCOC(=O)c1cc(S(=O)(=O)N2CCN(c3cccc(C)c3C)CC2)[nH]n1 -5.85%
CNC(=O)c1c(NC(=O)c2nc(SCc3ccc(C)cc3)ncc2Cl)sc2c1CCCC2 -9.81%
CCCS(=O)(=O)c1ncc(Cl)c(C(=O)Nc2c(C(=O)Nc3ccccc3)oc3ccccc23)n1 -25.3%
CCN(c1ccccc1C)S(=O)(=O)c1nnc(NC(=O)c2ccco2)s1 -3.68%
Cc1ccc(-n2ncc(C(=O)NC3CCCCC3)c2C2CCN(C(=O)OC(C)(C)C)CC2)cc1 -8.45%
COc1ccccc1OCC(=O)N1CCC(c2nc3ccccc3o2)CC1 -18.7%
CN(CC(=O)NCc1ccc(F)cc1)S(=O)(=O)c1ccc2[nH]c3c(c2c1)CCCC3 -26.1%
COc1ccc(CNc2nc3c(-c4cccc(F)c4)nnn3c3ccccc23)cc1 -6.06%
Cc1ccc(NC(=O)c2c(C)oc3c2C2=NCCN2C=N3)cc1F -10.2%
COc1ccc(-c2c(C)nn3c(C(F)(F)F)cc(-c4ccccc4)nc23)cc1OC -8.49%
COc1ccc(N(C)C(=O)c2cc3c(s2)-c2c(C)cccc2OC3)c(OC)c1 -5.35%
Cc1c(Cl)cccc1NC(c1ccc(F)cc1)c1nnc(-c2ccccc2)o1 (stereo not given) 12.3%
CCc1ccc(-n2c(=O)c3sc4ccccc4c3n(CC(=O)NCc3ccccc3)c2=O)cc1 -5.42%
O=C(c1ccc2c(c1)N(Cc1cccc(F)c1)C(=O)c1ccccc1S2)N1CCC2(CC1)OCCO2 -10.7%
